From publication PMC12136788
The other results are listed elsewhere or left out.

T1: UNK ZnF1-3 (human, UniProt Q9C0B0 31-174)
T1 sequence: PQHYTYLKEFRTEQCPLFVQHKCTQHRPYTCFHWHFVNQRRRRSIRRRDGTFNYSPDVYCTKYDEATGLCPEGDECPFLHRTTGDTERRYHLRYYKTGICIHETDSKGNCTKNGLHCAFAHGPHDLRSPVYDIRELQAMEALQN

B1: chr2:5814250:5814251:-_ENSMUSG00000025816_ENSMUST00000102981|mus_hu|mus_mus_mus_hu_True|1_78 (ssRNA)
RNA: GGGAGUUCUACAGUCCGACGAUCUUCCUUUCCGGUUUCUGAAUUUCUGGUAGAACUGCACAGAAAGGUUUGAUAACUUCUAAAAAUUUGAUGCCCAUGGCUGCUGCUGGGGAGGCCCAGGGGGAAACCGCGGCCUCGCAGCUGCAACAGAGGAUUGAGCAUCA
B2: chr9:82769708:82769709:-_ENSMUSG00000032253_ENSMUST00000034787|mus_hu|motif|central (ssRNA)
RNA: GGGAGUUCUACAGUCCGACGAUCAAAAGUCUUUGCAGCUGAAGAAGUAGAUGGUUGCUCAGUGACAACUGGAUCGGCAACCACUCGGUUGCUUCUGGUUCGAACCACAGAACUAGAUUCUGUUUUACCGUUUAUCUGAGCAGCCAACAGAGGAUUGAGCAUCA
B3: chr19:12019223:12019224:+_ENSMUSG00000046139_ENSMUST00000061618|mus_hu|FALSE|FALSE (ssRNA)
RNA: GGGAGUUCUACAGUCCGACGAUCAGGGAAGGUAGGAAAGGCAUGUAGUGGAAAUGGUCAGUAGACAACGGUAGAGGGAAGCUAGGUAACAUCACUGGGGAACAGCUGGUGGAGCCUGGGGUUACAGCAUGGGAAGAAAUGGAGCAACAGAGGAUUGAGCAUCA
B4: chr22:19452774:19452775:-_ENSG00000070010_ENST00000399523|hu_hu|hu_hu_hu_mus_False|1_68 (ssRNA)
RNA: GGGAGUUCUACAGUCCGACGAUCCUUCUCAUUGUAGUUGAUAGCAAUCACAUCUCCAGUCGUCAGACAGGCAAAGUUUCUCAAUGCAUUUUCUAAUACCGCUUUAGGGUUGGUAAUAUCCAGGAAGUCUGGGCUCUGAGGUUGCAACAGAGGAUUGAGCAUCA
B5: 51747384_51747599_595_CDS_ENSMUSG00000008140_ENSMUST00000118515|mouse|control|control (ssRNA)
RNA: GGGAGUUCUACAGUCCGACGAUCCUCCAGGCGCUCAAUGAAGGCUGCAGUCUCGGGGCCUGGAGCAGUGCUGGGAGGCCGCAGCUGCACAGAUGUAUUGAACAGCUCCAGGUCCUCAUCUUCCACCUCGGAGCCCCGGCAGCCCAACAGAGGAUUGAGCAUCA
B6: chr5:145543945:145543946:-_ENSG00000133706_ENST00000545646|hu_hu|hu_hu_hu_mus_True|58_78 (ssRNA)
RNA: GGGAGUUCUACAGUCCGACGAUCCUGAACGGCCAGUGGUGGGAAAUAAUCAAGCCAAUGUUCUGCUUCAGAAAACUUUACUAUCUCGUCAUCAGAGAGCCCAAGGGAUUUCAUAAUGUCCCACUGGUACUUAGAAGAUCCUGCCAACAGAGGAUUGAGCAUCA
B7: 40814524_40814644_2448_CDS_ENSG00000196588_ENST00000355630|human|control|control (ssRNA)
RNA: GGGAGUUCUACAGUCCGACGAUCCUGGGGGGCGGGGACCGGCUCGGGCUCAGGCUGCAAGGCUUCCUGCUUCACCACCACGGACGGGGGCCCCGGGGCCACAGCACAAGGGUCUAUGUGGUUGGUGGCUGGGGCCGCCAGGCUCAACAGAGGAUUGAGCAUCA
B8: chr3:104804989:104804990:-_ENSMUSG00000062127_ENSMUST00000098763|mus_mus|FALSE|FALSE (ssRNA)
RNA: GGGAGUUCUACAGUCCGACGAUCAGCACAUCAUUAGAUUCUGCUGACCAGUAACAGCUUCUUUGAUAUGGUUAAUACCCAAAUUGUGAAUCAUGGAACUUUUACUUAGCGCACACACUCACAAUCUACUGCAAACUGAAAUACCAACAGAGGAUUGAGCAUCA
B9: chrX:114868325:114868326:+_ENSG00000102024_ENST00000355899|hu_hu|FALSE|FALSE (ssRNA)
RNA: GGGAGUUCUACAGUCCGACGAUCGGGUGUAAGUUUCUUCUUGUUGAUUGCUCUUUCAUCAAUGGUAUCAGGAACUGAAAGGUUAAUCAUUUUACAAAGCACAAUUCCAUCACCAACAGCUUUGAACAGGUCAUCGGUGUUAGGCAACAGAGGAUUGAGCAUCA
B10: chr1:220276048:220276049:+_ENSG00000067704_ENST00000302637|hu_hu|hu_hu_hu_mus_True|1_28 (ssRNA)
RNA: GGGAGUUCUACAGUCCGACGAUCGCAAAUUGCCUGGUUGGCGGGAAUUGUCCAAGGCUGGGUGGUCCAAACUAAAACGCUAACAGGGGAUGAGGCAUCUGUAAGAGAUGCCAAUUUCGGAGGAGGUCUCAGGAGGGGAAAUUUCAACAGAGGAUUGAGCAUCA
B11: chr5:122939345:122939346:-_ENSMUSG00000029467_ENSMUST00000031423|mus_mus|motif|central (ssRNA)
RNA: GGGAGUUCUACAGUCCGACGAUCCUUUCUGUCCUGUCGAUACACUUUGCCCAUUUCAGGCUCAUAUUCCUUAAGAGCUUCGGUUGCAUUUUCAGCAUUUCUUUCCUGCCACACACCCACGAUUGCAUUGGCUACCAAGAUAAGCAACAGAGGAUUGAGCAUCA
B12: chr17:62500844:62500845:-_ENSG00000108654_ENST00000583239|hu_mus|FALSE|FALSE (ssRNA)
RNA: GGGAGUUCUACAGUCCGACGAUCUUGAUAAAAAUUCUUCUCAAAUUUGGGCAGCUCAUCAAGAUUCCACUUCUUUUUAACUAGUUUCUCCCCAGGAUUUCCAAACUUCUUUCCAGAGAGGGGUCCUGUUCUACUCCCUCCAAACAACAGAGGAUUGAGCAUCA
B13: chr9:14812383:14812384:-_ENSMUSG00000031934_ENSMUST00000164273|mus_mus|mus_mus_mus_hu_True|68_108 (ssRNA)
RNA: GGGAGUUCUACAGUCCGACGAUCAUAGCUCAAGUAGAUACACGCUAACAGUAUAAUGAUGAGUGUCACCAGCCGGCAGCUAAUGUACUUGAUGAUUAAAUUAUUAGAAUUUUUCUUUGUCUUCAAGUACUGCUCCACAAUUGGCAACAGAGGAUUGAGCAUCA
B14: chr7:118215863:118215864:-_ENSMUSG00000005610_ENSMUST00000162415|mus_hu|FALSE|FALSE (ssRNA)
RNA: GGGAGUUCUACAGUCCGACGAUCUAUUGCAACAACUCAAGUAUUACUGAGCAAAGUGCAUUUCUACAGUAUUCAGUGUUGCUAUUCAGUUUUCUAACUUAAAACAGCCUAUGAUAACUGGCAGCAAAGAAGGUCCUUGCAAUACAACAGAGGAUUGAGCAUCA
B15: 11281310_11281430_1695_3pUTR_ENSG00000154319_ENST00000284486|human|control|control (ssRNA)
RNA: GGGAGUUCUACAGUCCGACGAUCCUGGGGCUGCGUCCCCAAGUGCCCAUUUGUCAUGCCUUUCGAUUUUCCCUUCCUAGUAGCUCCCUGUCAAUGUUGCUGAGUCAUGUACUUAGGGUGAAUUUGAGACAAUACUUAGAGGACCAACAGAGGAUUGAGCAUCA
B16: chr12:48362563:48362564:+_ENSG00000134291_ENST00000256686|hu_hu|hu_hu_hu_mus_False|18_78 (ssRNA)
RNA: GGGAGUUCUACAGUCCGACGAUCUCCGUCAAGCCCUUCGAUAGACCCUUGCGGGGGUGGUAAAAACCACUUUGUAUGGGGAAGGAAAAGAAACGCCAAAAACUUUCCAAAAAGCGGUUCAAAAAGCAGGCGGGAGGGGGAGGUCAACAGAGGAUUGAGCAUCA
B17: 42873059_42873707_7040_CDS_ENSG00000105429_ENST00000334370|human|control|control (ssRNA)
RNA: GGGAGUUCUACAGUCCGACGAUCCACAGGGCGGCACAGCCCUGUCAUGUUGUCCAUGGUAUAGCCGGUCUUGCAGCUGCACUCAUAGCCGUGGGGCUGGUCGUGGCAAUUCUGCGUCUCGUUGCAGUCGUGGUGCCCGUUUGCCAACAGAGGAUUGAGCAUCA
B18: chr14:89307221:89307222:+_ENSG00000165533_ENST00000346301|hu_mus|hu_hu_hu_mus_False|28_88 (ssRNA)
RNA: GGGAGUUCUACAGUCCGACGAUCUCCUGUUUGGUUAGUGCCAGGGAGUUUCAAAGAUGUGCCAGGGCGUGGGACCUGAGCAAUAGCAUUUUCAUCCAGGAUCAUUUCUGCAAUUCCUUCCUGGUCCACAUCAAUUUCAUCUAUCAACAGAGGAUUGAGCAUCA
B19: chr6:36887377:36887378:+_ENSG00000198663_ENST00000480824|hu_hu|FALSE|FALSE (ssRNA)
RNA: GGGAGUUCUACAGUCCGACGAUCUCUUCGGCACUGGAAGGGAGGGAUGAGCUGCAACAUGGCCUCACCGCUGCCAAUGAUAAAUAGGUCAGGCAUCUUAUGCAUCUUACUCCCCACAACAGGUUCUGGGUGAAGAAAGGAGCACAACAGAGGAUUGAGCAUCA
B20: chr8:92086081:92086082:+_ENSG00000155100_ENST00000285420|hu_hu|FALSE|FALSE (ssRNA)
RNA: GGGAGUUCUACAGUCCGACGAUCUAUCCGAGGUGGCUGAUUCUCAAGCACCAAGUUUGAAAUGUUAACAGCAACAGAAUCUAUCUUAUUCUCCUUAGUAGUCAGCUUCAAUUGCUCCAGUUCCUCUCUAUGUUUCUGUUCCAUCAACAGAGGAUUGAGCAUCA
B21: chr5:128440902:128440903:+_ENSG00000066583_ENST00000173527|hu_mus|hu_hu_hu_mus_True|18_98 (ssRNA)
RNA: GGGAGUUCUACAGUCCGACGAUCUUGAACGGUGCUGCCAAGACCUUUGGGGUAUUGUUCCGUUAUGAUAACUGGAAUCCCUAAGAUCCGAGCUCCUUGCAACAGUCUCUGUCCCACGCUAAUAAUAUCCCCAAAGUAUUUGAUCAACAGAGGAUUGAGCAUCA
B22: 80391620_80393606_440_CDS_ENSG00000169660_ENST00000327949|human|control|control (ssRNA)
RNA: GGGAGUUCUACAGUCCGACGAUCUAGCCACCGGCGCGAGGCCUCCCCCUCUCCGAGGUAAUAGACCUCAUCACACCCGAUGUGCAGCCGCUGGGCGCCUGGGUGUAGCUCCAGGACCUGGUCAAUCAUGGCGCCCACCAGCGCCAACAGAGGAUUGAGCAUCA

These binders were tested against T1, UNK ZnF1-3 (assay: nsRBNS (natural sequence RNA bind-n-seq); RBNS binding buffer (assumed for nsRBNS): 25 mM Tris pH 7.5, 150 mM KCl, 3 mM MgCl2, 0.01% Triton X-100, 500 ug/ml BSA, 20 U/ml SUPERase-In, 4 C; UNK is unkempt and MSI1 is Musashi-1; names of the RNAs are library labels; protein concentration not given here; high values mean tight binding).
With B1 the binding signal was 0.976 enrichment R.
B2 showed a binding signal of 0.597 enrichment R.
B3 was tested, and the binding signal was 2.31 enrichment R.
For B4, the binding signal was 1.02 enrichment R.
Work on B5 yielded a binding signal of 0.788 enrichment R.
In the case of B6, the binding signal is reported as 1.21 enrichment R.
Binder B7 has a binding signal of 0.825 enrichment R.
B8 gave a binding signal of 1.33 enrichment R.
Binder B9 has a binding signal of 0.682 enrichment R.
In the case of B10, the binding signal is reported as 2.55 enrichment R.
In the case of B11, the binding signal is reported as 0.823 enrichment R.
B12 was tested, and the binding signal was 1.38 enrichment R.
Binder B13 has a binding signal of 0.782 enrichment R.
B14 gave a binding signal of 0.738 enrichment R.
B15 showed a binding signal of 1.04 enrichment R.
With B16 the binding signal was 1.95 enrichment R.
With B17 the binding signal was 0.448 enrichment R.
Work on B18 yielded a binding signal of 0.835 enrichment R.
B19 was tested, and the binding signal was 2.18 enrichment R.
With B20 the binding signal was 1.05 enrichment R.
Work on B21 yielded a binding signal of 0.679 enrichment R.
With B22 the binding signal was 0.701 enrichment R.
